# Among all 340,000 compounds or so, about 12,000 (3.5%) were called active. Inconclusive means that the source gave no clear call. Such entries were picked first, then a sample of the others. The call rests on the fitted dose curve; in most records, active means well fitted inhibition curve with a large enough effect; inconclusive means small, poorly fitted or top-dose-only effect, or another doubt; inactive means no such curve, though single readings can be large or run the other way. Potencies of inconclusive entries are left out as doubtful fits.
# Assay: qHTS Assay for Inhibitors of Hepatitis C Virus (HCV)
# Conditions: Huh7.5.1 HCVcc-Cre (HCVcc is cell-culture hepatitis C virus) infection, luciferase reporter, 44 h; activity change, negative = inhibition: at 41.8 µM (top of the series) unless noted
# Procedure, shortened: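 Seed cells (1,000/well) for 4 h; treat with compound and infect with HCVcc-Cre, moi about 0.5. Incubate 44 h, then detect luciferase activity.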
# On the % scale 0 is the no-effect control and ±100 the full control effect; potency means the concentration at half of the fitted maximal effect; tags describe the fitted curve by direction and shape.
SMILES,"activity change, negative = inhibition",Potency
CC(=O)C12CCCCC1CC1[C@@H]3CC(C)C4=CC(=O)CC[C@]4(C)C3CC[C@@]12C (stereo partly drawn),inactive: -18.5%,–
Cc1c(Cc2ccccc2)c(NCCN(C)C)n2c(nc3ccccc32)c1C#N,–,"inconclusive [inhibitor, partial curve]"
COc1ccc(-n2nc(C(=O)NCC(=O)NCCc3ccc(OC)c(OC)c3)c3ccccc3c2=O)cc1Cl,–,"inconclusive [inhibitor, partial curve]"
CCOC(=O)NC1(Nc2ccc(C)cc2)Oc2ccccc2O1,–,"inconclusive [inhibitor, single point]"
Cc1oc(-c2ccc(Cl)cc2)nc1CN1CCC(C(=O)NCC2CCCO2)CC1 (stereo not drawn),inactive: -18.6%,–
Cc1nc2c(Cl)cc(Cl)cc2[nH]1,–,"inconclusive [inhibitor, single point]"
O=C(Nc1ccc(OC(F)(F)F)cc1)C1CCCN(S(=O)(=O)c2cccnc2)C1 (stereo not drawn),–,"inconclusive [inhibitor, partial curve]"
COc1ccc(NS(=O)(=O)c2cc(NC(=O)CCSc3ccccc3)ccc2OC)cc1,–,"inconclusive [inhibitor, single point]"
CC(=O)c1c(C)[nH]c(C(=O)Nc2ccc(C)c(S(=O)(=O)N(C)C)c2)c1C,–,"inconclusive [inhibitor, single point]"
COc1ccc(CCNC(=O)CSc2cn(Cc3ccccc3)c3ccccc23)cc1OC,–,active: 11.2 µM
COc1ccc(-c2nn(-c3ccccc3)cc2/C=N/Nc2ccc3ccccc3n2)cc1OC,–,active: 10 µM
O=C1C(=O)N(CCS(=O)(=O)c2ccccc2)c2ccc(F)cc21,inactive: 4.61%,–
CCOC(=O)Cc1csc(NC(=O)c2ccc(C)c(S(=O)(=O)N3CCOCC3)c2)n1,–,"inconclusive [inhibitor, partial curve]"
O=C(O)CCn1cc(-c2ccc(Cl)cc2)nc1-c1ccncc1,–,"inconclusive [inhibitor, single point]"
COc1ccc(OC)c(-c2csc(N(Cc3ccco3)C(=O)c3cccs3)n2)c1,–,active: 12.6 µM
COc1ccc(-c2cc(C)no2)cc1S(=O)(=O)N1CCOc2ccc(C)cc21,inactive: 6.4%,–
Cn1c(SCc2cccc(Br)c2)nnc1-c1ccccn1,inactive: 17.2%,–
Cc1nn(-c2ccc(F)cc2)c(Cl)c1/C=N/NC(=O)c1cccs1,–,"inconclusive [inhibitor, full curve, poor fit]"
COc1cc(CC(=O)Nc2sc3c(c2C(N)=O)CCCC3)cc(OC)c1OC,–,"inconclusive [inhibitor, full curve]"
COc1ccc(-c2nsc(C(=O)N(c3ccc(F)cc3)C(C(=O)NC3CCCC3)c3ccc(OC)cc3)c2N)cc1 (stereo not drawn),inactive: 4.55%,–
COc1ccc(OCc2cccc(C(=O)Nc3cc(C)on3)c2)cc1,–,"inconclusive [inhibitor, partial curve]"
COc1ccc(NC(=O)CN(C)C(=O)CCCc2c[nH]c3ccccc23)cc1,–,"inconclusive [inhibitor, single point]"

SMILES,"activity change, negative = inhibition",Potency
COc1ccc(C2(C)NC(=O)N(CC(=O)Nc3ccc(Br)cc3F)C2=O)cc1OC (stereo not drawn),–,"inconclusive [inhibitor, partial curve, poor fit]"
O=C(NCCc1ccc(OC(F)F)cc1)C1CC(=O)N(c2ccc3c(c2)OCCO3)C1 (stereo not drawn),inactive: 2.44%,–
Cc1ccc(OCc2ccc(C(=O)O)o2)c([N+](=O)[O-])c1,–,"inconclusive [inhibitor, single point]"
CC(C)c1ccc(NC(=O)NCc2ccc(F)cc2)cc1,–,"inconclusive [inhibitor, single point]"
COc1ccc(-c2cc(C(F)(F)F)n3nc(C(=O)Nc4cc(C)on4)cc3n2)cc1OC,–,"inconclusive [inhibitor, partial curve, poor fit]"
COc1ccc(-c2noc(N3CCC(C(=O)Nc4cc(OC)ccc4OC)CC3)n2)cc1,–,"inconclusive [inhibitor, partial curve, poor fit]"
O=C(c1ccc(CS(=O)(=O)Cc2ccc(Cl)cc2)o1)N1CCCC1,–,"inconclusive [inhibitor, single point]"
Cc1ccc(COc2ccc(C)nc2[N+](=O)[O-])cc1,–,"inconclusive [inhibitor, partial curve, poor fit]"
CCC(=O)Nc1ccc(C(=O)CSc2nnc(-c3ccc(NS(=O)(=O)CC)cc3)o2)cc1OC,inactive: -14.7%,–
COC(=O)[C@]1(Cc2ccccc2)N[C@H](CN(C)S(=O)(=O)c2ccc(-c3ccccc3)cc2)[C@@H]2C(=O)N(Cc3ccccc3)C(=O)[C@@H]21,–,"inconclusive [inhibitor, partial curve]"
CC(NC(=O)COC(=O)c1cccc(S(=O)(=O)N2CCCC2)c1)c1ccccc1 (stereo not drawn),–,"inconclusive [inhibitor, single point]"
COC(=O)CN(c1ccc(OCc2ccccc2)cc1)S(C)(=O)=O,–,"inconclusive [inhibitor, single point]"
CCCOc1ccc(C(O)(CCC)CCN2CCCCC2)cc1 (stereo not drawn),–,active: 8.91 µM
c1cncc(-c2nc(-c3ccc4c(c3)OCO4)cs2)c1,–,"inconclusive [inhibitor, partial curve]"
CN1CCN(CC(=O)n2c3c(c4ccccc42)CCCC3)CC1,–,"inconclusive [inhibitor, single point]"
COc1ccc(CNC(=O)CN(Cc2ccc(Cl)cc2)C(=O)c2csnn2)cc1,–,"inconclusive [inhibitor, single point]"
CC(C)(O)C#Cc1ccc(C(=O)NC2CCCCC2)s1,–,"inconclusive [inhibitor, full curve, poor fit]"
N#Cc1ccc(OCC(=O)N/N=C2/CC(c3ccccc3)Oc3ccccc32)cc1 (stereo not drawn),inactive: 4.91%,–
Cc1cc(/C(=N/O)C(C)(C)NO)ccc1Cl,inactive: 10.7%,–
Cc1ccc(CNC(=O)CCS(=O)(=O)c2cc(Br)cc3c2N(C(=O)C2CC2)CC3)o1,inactive: -8.29%,–
Cn1c(-c2ccc3c(c2)OCO3)cnc1NCc1cccc(O)c1,–,"inconclusive [inhibitor, single point]"

# Reference: PubChem BioAssay AID651820 (National Center for Advancing Translational Sciences (NCATS), 2012)
